Paper PMC6919601, “Identification of Plasmodium dipeptidyl aminopeptidase allosteric inhibitors by high throughput screening” (PLoS ONE, 2019)
Screen size: about 110,000 compounds; about 230 (0.21%) showed an effect of 50% or more. This is one part of the list.

target: DPAP1 (Plasmodium falciparum, UniProt Q8IIJ9); assay: primary screen, percent inhibition; read by cleavage of a fluorogenic dipeptide substrate; higher = more effect of the substance; parameters: species or system P. falciparum D10 trophozoite lysates; single well
Sequence (Q8IIJ9 whole entry, looked up): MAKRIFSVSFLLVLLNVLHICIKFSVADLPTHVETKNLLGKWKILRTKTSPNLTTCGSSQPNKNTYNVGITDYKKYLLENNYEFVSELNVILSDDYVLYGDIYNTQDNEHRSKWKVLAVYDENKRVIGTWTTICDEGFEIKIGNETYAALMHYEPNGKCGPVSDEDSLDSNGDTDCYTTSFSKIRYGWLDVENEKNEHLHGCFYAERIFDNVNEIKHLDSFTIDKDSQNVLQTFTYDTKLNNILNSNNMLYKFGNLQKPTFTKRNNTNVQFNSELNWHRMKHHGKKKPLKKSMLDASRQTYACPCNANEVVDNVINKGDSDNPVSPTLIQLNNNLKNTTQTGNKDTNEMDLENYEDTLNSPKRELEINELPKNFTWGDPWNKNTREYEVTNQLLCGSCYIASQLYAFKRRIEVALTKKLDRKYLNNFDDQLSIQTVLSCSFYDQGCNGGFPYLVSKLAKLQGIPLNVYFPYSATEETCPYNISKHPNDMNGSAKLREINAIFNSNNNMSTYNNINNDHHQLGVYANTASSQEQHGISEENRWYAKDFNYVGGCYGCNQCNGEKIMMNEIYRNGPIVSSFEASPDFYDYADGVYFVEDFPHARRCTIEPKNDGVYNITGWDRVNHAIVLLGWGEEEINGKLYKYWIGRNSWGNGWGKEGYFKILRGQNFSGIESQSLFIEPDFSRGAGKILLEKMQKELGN
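Note: 30 min substrate incubation versus DMSO and 10 µM JCP410 controls.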

Row | Compound | % Inhibition @ 10 uM
1 | CCOC(=O)c1c(C)n(C)c2ccc(OCC)cc12 | -1.92%
2 | CCCNC(=O)CN(C1CCCCC1)S(=O)(=O)c1ccc(F)cc1 | -0.185%
3 | COc1cccc(CNC(=O)CNC(=S)N(Cc2cccs2)C2CCCCC2)c1 | -0.406%
4 | COc1cccc(/C=C/C(=O)c2c(C)cc(C)nc2O)c1O | 5.45%
5 | CC(=O)N1N=C(c2ccc(C)o2)CC1c1ccc(F)cc1 (centres unmarked) | -2.6%
6 | COCCNC(=O)c1cc(C)nc2c1c(C)nn2-c1ccccc1 | 3.75%
7 | Cc1ccc(-n2nc(C)c3c(C(F)(F)F)cc(-c4ccncc4)nc32)cc1 | -5.4%
8 | COCCN1C(=O)C(O)=C(C(=O)c2ccc(S(=O)(=O)N(C)C)cc2)C1c1cccc(Cl)c1 (centres unmarked) | -1.6%
9 | CC(C)N1CCc2nc(S)nc(O)c2C1 | 4.16%
10 | Cc1ccccc1NC(=O)c1cccc(S(=O)(=O)N2CCCCC2)c1 | -1.74%
11 | CC(C)(C)NCC(=O)NCC12CC3CC(CC(C3)C1)C2 | -2.48%
12 | CC1CCN(C(=O)C2CCCN2C(=O)OCc2ccccc2)CC1 (centres unmarked) | 2.44%
13 | NC(=O)c1cc(S(=O)(=O)NCc2ccc(F)cc2)cs1 | -6.82%
14 | CCc1nn(-c2cc(Oc3ccc(F)cc3)nc(SC)n2)c(N)c1C#N | -1.64%
15 | O=[N+]([O-])c1ccc(Cl)c(CN2CCCCCCC2)c1 | 7.03%
16 | O=C(COc1ccc(S(=O)(=O)N2CCOCC2)cc1)N1c2ccccc2Sc2ccccc21 | 2.48%
17 | CC(C)CN(CC(C)C)C(=O)CN1C(=O)c2ccccc2C1=O | -2.89%
18 | CC(=O)Nc1ccc(NC(=O)c2ccc(COc3ccccc3Br)o2)cc1 | 0.931%
19 | O=C(CSc1nc2ccccc2s1)Nc1c(-c2ccccc2)nc2ccccn12 | 2.7%
20 | CN(C(=O)c1ccc([N+](=O)[O-])o1)c1ccccc1 | -1.22%
21 | O=C(NCc1ccccc1Br)C1CCCN(c2nnc(N3CCCC3=O)s2)C1 (centres unmarked) | -4.68%
22 | CO/C(O)=C1\C(C)=NC2=C(C(=O)CC(C)(C)C2)C1c1ccc(C)o1 (centres unmarked) | 5.7%
23 | COc1ccccc1NC(=O)c1ccc(-c2ccccc2)cc1 | -6.39%
24 | CN(CCOC(=O)c1ccco1)C(C)(C)C | 3.43%
25 | COc1ccc(C2C=C(c3ccc(Br)s3)Nc3nnnn32)cc1OC (centres unmarked) | -1.62%
26 | COc1ccc(OC)c(C2C3=C(O)CC(C)(C)CC3=Nc3nc(-c4cccc(C)c4)nn32)c1 (centres unmarked) | 0.275%

Row | Compound | % Inhibition @ 10 uM
27 | COC(=O)c1sc2c(Cl)c(OC)ccc2c1Cl | -0.687%
28 | Cc1ccc(C(=O)N2CCc3c([nH]c4ccccc34)C2)cc1 | -15.9%
29 | CCOC(=O)c1c(C)oc2ncnc(NC3CCCCC3C)c12 (centres unmarked) | 9.28%
30 | OC1(c2ccccc2)CN2CCCCCC2=[N+]1c1ccc(Br)cc1 (centres unmarked) | -5.6%
31 | Cc1cc(/C=C2\C(=N)N3N=C(N4CCOCC4)SC3=NC2=O)c(C)n1-c1cccc2ccccc12 | 6.38%
32 | COc1ccc(-c2nc(CS(=O)CC(=O)NC(C)CCc3ccccc3)c(C)o2)cc1OC (centres unmarked) | -6.64%
33 | CN1C(=O)CC(C(=O)O)S/C1=N/c1ccc(OC(F)(F)Cl)cc1 (centres unmarked) | -3.95%
34 | COC(=O)C1=C(C)N(Cc2cccnc2)C(=O)/C1=C\c1sccc1C | 0.131%
35 | COC(=O)c1cc2c(=O)n3cc(C)ccc3nc2n(Cc2ccco2)c1=N | 0.279%
36 | Cc1nn(C)c(C)c1NC(=O)c1ccc(-c2ccccc2)cc1 | -3.14%
37 | Nc1cc(C(=O)Nc2ccccc2C(=O)O)ccc1Cl | 0.0265%
38 | O=C1Cc2ccccc2C(c2ccccc2Br)N1 (centres unmarked) | -0.744%
39 | CCOC(=O)N1CCC(N2Cc3cccc(C(=O)NCc4ccc5c(c4)OCO5)c3C2=O)CC1 | -0.499%
40 | Cc1c(NC(=O)C23CC4CC(CC(C4)C2)C3)c(=O)n(-c2ccccc2)n1C | 0.815%
41 | Cc1ccccc1[C@@H]1C(C#N)=C(N)S[C@H]1C(=O)c1ccccc1 | -2.07%
42 | CCOC(=O)c1c(-c2ccccc2)csc1NC(=O)c1cc(=O)c2cc(C)ccc2o1 | -3.24%
43 | N#Cc1cc2c(N)c(C(N)=O)sc2nc1N | -3.77%
44 | COc1ccccc1Oc1nc2c(c(=O)n(Cc3ccc(Cl)cc3Cl)c(=O)n2C)n1C | 0.279%
45 | CC(=O)C1=C(O)C(=O)N(CCN(C(C)C)C(C)C)C1c1ccc(O)cc1 (centres unmarked) | -0.884%
46 | Cc1nc2cc(-c3cccc(F)c3)nn2c(C)c1CCC(=O)NC1CCN(Cc2ccccc2)CC1 | 1.05%
47 | O=C(c1ccccc1)N1CC(COc2ccccc2)OC(c2ccco2)O1 (centres unmarked) | -7.55%
48 | COc1ccccc1OCc1ccc(C(=O)N2N=C(C(F)F)CC2(O)C(F)F)cc1 (centres unmarked) | 0.389%
49 | CC1=CC(C)C(COC(=O)CN2CCCCC2)C(C)C1 (centres unmarked) | 3.15%
50 | CCN(CC)CCOC(=O)C(c1ccccc1)c1ccccc1 | -1.29%
51 | Cc1ccc(OCCN2C(=O)S/C(=C\c3ccc(C)o3)C2=O)cc1 | 0.13%
52 | COCCNC(=O)NC1(C(F)(F)F)Oc2cc(Cl)c(Cl)cc2O1 | 2.06%

Row | Compound | % Inhibition @ 10 uM
53 | CC(=O)Nc1sc2c(c1C(c1ccccn1)N1CCN(C)CC1)CCCC2 (centres unmarked) | 8.44%
54 | O=Cc1cn(CC(=O)NCCc2ccccc2)c2ccccc12 | -0.971%
55 | CC1=CC(C)(C)N(C(=O)CN2C(=O)CCC2=O)c2ccccc21 | -3.26%
56 | O=C(Nc1ccccc1)NC1CCCC1 | -1.62%
57 | COc1cc(CN2CCN(C)CC2)cc2c1OCO2 | 4.03%
58 | CCOc1cc(/C=c2/sc3nc4ccccc4n3c2=O)ccc1OC(C)C(=O)O (centres unmarked) | -4.51%
59 | CCNc1ccccc1-c1nc2ccccc2nc1O | -2.42%
60 | COc1ccc(S(=O)(=O)N2CCCCC2)cc1Br | -1.1%
61 | CC(=O)N(C)c1ccc(NC(=O)COc2ccc(Br)cc2C)cc1 | -1.6%
62 | CCCCSc1nnc2c(n1)[nH]c1ccc(C)cc12 | 44.7%
63 | CCOC(=O)c1nnn(-c2nc(OC)nc(N(C)C)n2)c1-c1ccccc1 | -8.28%
64 | Cc1cc2cc([N+](=O)[O-])ccc2n1Cc1ccccc1 | 3.9%
65 | O=C(CCCn1sc2ccccc2c1=O)NCc1cccnc1 | 0.655%
66 | OC(c1ccccn1)(c1ccccn1)c1ccccn1 | -9.07%
67 | COc1ccc(-c2cc3ccccc3n2CC(O)CNC(CO)(CO)CO)cc1 (centres unmarked) | -1.81%
68 | CCOc1ccccc1/N=C1/C=C(O)CC(c2ccc(OC)cc2)C1 (centres unmarked) | 0.851%
69 | CCC(C)NC(=O)c1sc2nc(C)cc(C)c2c1-n1cccc1 (centres unmarked) | 0.413%
70 | O=C(Cn1ncc2c3ccccc3nc-2c1O)N1CCc2ccccc2C1 | 5.49%
71 | OCCN1CCN(CCc2ccccc2)CC1 | -0.603%
72 | Cc1ccccc1Cc1c(C)nc2nc(SCC(=O)NC(C)(C)C)nn2c1C | -0.363%
73 | O=S(=O)(c1ccc(N2CCN(CCO)CC2)nc1)N1CCOCC1 | 0.245%
74 | CCCN1CCC(Nc2cccc(SC)c2)CC1 | 3.05%
75 | Cc1cc(=O)oc2c3c(ccc12)OCN(Cc1ccco1)C3 | 6.66%
76 | COc1ccccc1-c1c(C)nn2c(N)c(-c3ccc(Cl)cc3)cnc12 | -1.24%
77 | CC(NC(=O)C(=O)NCc1ccco1)C(c1cccs1)N1CCN(C)CC1 (centres unmarked) | -4.74%
78 | Cn1nc(N)c2c(-c3ccc(Cl)cc3)c(C#N)c(N)nc21 | 2.48%

Row | Compound | % Inhibition @ 10 uM
79 | CCCCNC(=S)NCc1ccc2[nH]c(C)cc2c1 | -1.89%
80 | COc1cc2c(cc1OC)C(c1cc(OC)c(O)c(OC)c1)NCC2 (centres unmarked) | -3.62%
81 | COC(=O)c1cccnc1NC(=S)NC1CCCCC1 | 10%
82 | COc1ccc2oc(-c3ccccc3)c(C(=O)Nc3nccs3)c2c1 | -4.93%
83 | CCCCCOC(=O)Nc1ccc(S(=O)(=O)Nc2ccc(F)cc2)cc1 | 6.86%
84 | Cc1ccccc1CNC(=O)Cn1nc(C)c2sc3ccccc3c2c1=O | -7.87%
85 | Cn1c(=O)c2c(n3c4ccccc4nc13)NC(=O)CC2c1ccc(OCc2ccccc2F)cc1 (centres unmarked) | 0.883%
86 | CCN(CC)c1ccc(C(=O)c2ccccc2C(=O)O)c(O)c1 | -3.6%
87 | CCOC(=O)C1=C(N)Oc2c(c(O)nc3ccc(C)cc23)C1c1ccc(OC)cc1 (centres unmarked) | 3.93%
88 | COc1cc(Cc2nnc(C(=O)NCc3ccccc3Cl)o2)cc(OC)c1OC | -1.14%
89 | Cc1nnc(SCC(=O)NCc2ccc3c(c2)OCO3)c2nn(-c3ccccc3)c(C)c12 | -1.95%
90 | O=C(C1CCCN(c2ncnc3c2nc2n3CCCCC2)C1)N1CCCC1 (centres unmarked) | -4.51%
91 | CC(=O)Nc1ccc(N/C=C(\C#N)c2nc3cc(Cl)ccc3o2)cc1 | 2.08%
92 | O=C(CSc1nc2nncc-2c(O)n1-c1ccccc1)c1ccc2c(c1)OCCO2 | -2.77%
93 | COc1cc2c(cc1OC)C1(CCCC1)CN(CCCN)C2C (centres unmarked) | -2.63%
94 | CC1(C)CC(=O)C2=C(C1)N(c1ccccc1)C(=O)C2(O)C(F)(F)F (centres unmarked) | -4.39%
95 | C=CCn1c(=N)c(C(N)=S)cc2c(=O)n3cccc(C)c3nc21 | -1.66%
96 | Cc1csc2[n+]1-c1ccccc1N(C(=O)Nc1ccccc1)CC2 | -1.17%
97 | COc1cc(NC2=NC(=O)/C(=C/c3cccs3)S2)c(C(=O)O)cc1OC | -2.28%
98 | O=C1c2ccccc2-c2nc3ncnn3c(-c3ccc4c(c3)OCO4)c21 | 0.746%
99 | O=C(O)c1ccc(NS(=O)(=O)c2ccc(-c3ccccc3)cc2)cc1 | -2.85%
100 | COc1ccc(N2CCN(Cc3cccs3)CC2)cc1 | 4.04%
101 | COc1ccccc1N1CCN(Cc2ccccn2)CC1 | 3.35%
